Sequences and labels used below:
T1: UNK ZnF1-3 (human, UniProt Q9C0B0 31-174)
T1 sequence: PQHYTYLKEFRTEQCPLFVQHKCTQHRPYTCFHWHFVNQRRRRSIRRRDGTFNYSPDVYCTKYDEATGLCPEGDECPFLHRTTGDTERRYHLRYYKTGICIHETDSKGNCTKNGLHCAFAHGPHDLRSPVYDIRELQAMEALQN

B1: chr13:14279204:14279205:+_ENSMUSG00000039219_ENSMUST00000039538|mus_mus|FALSE|FALSE (ssRNA)
RNA: GGGAGUUCUACAGUCCGACGAUCAUCUGUAUGGACUUUGUUUUCUUCUAGCAAAGAUGGACUACUCUGUUCCUCUUUUGAAAUCAGUUCAUUUCUGCUGUGGGUUGAAUGUUCCACCUUUGAUUCGUCUUUGCCAAUGUUAUCCAACAGAGGAUUGAGCAUCA
B2: 146276283_146277518_615_3pUTR_ENSMUSG00000037110_ENSMUST00000109986|mouse|control|control (ssRNA)
RNA: GGGAGUUCUACAGUCCGACGAUCUUCCUCUGGGUAUAUUUUUGCAUCAACUAUACUAGGGCUAGGGUUGAUGAGUGUCUCCAGUGUGCAGGGACCCCUGGAUGACAAGACCGCUGGGAAACCAGGCACUAGGCAAGCGAAAAUCAACAGAGGAUUGAGCAUCA
B3: chr2:114699772:114699773:+_ENSG00000115091_ENST00000536059|hu_hu|motif|central (ssRNA)
RNA: GGGAGUUCUACAGUCCGACGAUCUGACCCAUCUGUAUCAUACUUGUUAAAUUCUUUUACUAAAUCUGGGCAGACAUAACGGUAGCGCUCCUUUACUGCCUUAGCAGUUUCCAAGGAUUGUUCUGGAGGGAUUCCUACUUCUCGCAACAGAGGAUUGAGCAUCA
B4: chr2:198351390:198351391:-_ENSG00000144381_ENST00000345042|hu_hu|hu_hu_hu_mus_False|38_58 (ssRNA)
RNA: GGGAGUUCUACAGUCCGACGAUCUCAUUCCCACCCUCCACAGAAAGGCUGCUUCUGAACUCUCAUGUGGUGACACAGCACUAAAAUCCUGAUGCUCACAGAAUAGUAGAGAUGCCUCAGUGAUUUAAGUUGAAAGCAGGACACCAACAGAGGAUUGAGCAUCA
B5: chr7:23547099:23547100:-_ENSG00000164548_ENST00000297071|hu_mus|FALSE|FALSE (ssRNA)
RNA: GGGAGUUCUACAGUCCGACGAUCUGGUCUGCCCAUGUAAAUGCCUGGUGUGGGUGUGUGCGCUCUCUUGGUGAUAGAAUAAUCCACACGGAUUCUUCUACCGUCCAGCUCCAUCCCAUUUGCUCUCUCCAUAGCCUCCUUAGACAACAGAGGAUUGAGCAUCA
B6: chr12:36845622:36845623:-_ENSMUSG00000020547_ENSMUST00000020856|mus_hu|motif|central (ssRNA)
RNA: GGGAGUUCUACAGUCCGACGAUCUGCCAUCCAUGCUUUGAAAAGCUUGACAGCAAAUGAGGCCGCAAUGCCUUCUUUGACGGAGCUGUCGGUGAAGAGACUGGUGAGGAUGGUGGCGGGCAGGGUGCCAUUGCCCAGCAGAAUCAACAGAGGAUUGAGCAUCA
B7: 119461059_119461179_1228_CDS_ENSG00000119401_ENST00000373983|human|control|control (ssRNA)
RNA: GGGAGUUCUACAGUCCGACGAUCUAGUACUUCACCUUGACUGGUCACGUAGAGACUGACUGGAAGAUUGAACAUUCCUGGAGUGCUGCCUUUGGCCCCCAUCUUCUUGAGAAAGAGGCACUGCUGGAUAUUGGAGGCUGCCUCCAACAGAGGAUUGAGCAUCA
B8: chr9:95013113:95013114:-_ENSG00000196305_ENST00000443024|hu_hu|hu_hu_hu_mus_False|48_58 (ssRNA)
RNA: GGGAGUUCUACAGUCCGACGAUCCUCAGUCAGAAAGGGCGUGUAAGGGGCCAUCAGUCUGCACAGAGAAAGCAGGACACUAAACAAGGUUUCUAGGGCCAUGACACAGUCUUCCACCCCACUCUCACCCUUUAACCUCCUCCUCAACAGAGGAUUGAGCAUCA
B9: chr14:65392728:65392729:+_ENSG00000258289_ENST00000359118|hu_mus|motif|central (ssRNA)
RNA: GGGAGUUCUACAGUCCGACGAUCAUACUCGUGUCUGGCUACUACAUGAUGACAGUUCUUACACAGAUGGUCAUAGGUAACGGUUUCUUCUCCAUCUUCCUCUUUCAGGGAUCUGUUUGUGAUCAGCAUAAAGUCCCGCUUACUCAACAGAGGAUUGAGCAUCA
B10: chr16:92112057:92112058:+_ENSMUSG00000039680_ENSMUST00000047429|mus_mus|motif|central (ssRNA)
RNA: GGGAGUUCUACAGUCCGACGAUCGCCGUCACACUCUUUUACUUCCUGGGUCAGAGGGUGUUUCACAAUAUUUGGUCGGACCACGUCAAUGUCUCGCGCCAAGUGUUCCAGUAUGUUCUCCACAGCACUUGUCGGAGCAUAAAACAACAGAGGAUUGAGCAUCA
B11: chr2:61705333:61705334:-_ENSG00000082898_ENST00000401558|hu_mus|FALSE|FALSE (ssRNA)
RNA: GGGAGUUCUACAGUCCGACGAUCUCGACAAGCGACAGCACACACACACACACACAAACAAAAAGAACUGUGUAAAAAUAACUAACUGUUCCCAUAUUUUUGAAGUUGCUUUACAAUGGGAUGAUAUGCACAUGAUCUUGCUGCCAACAGAGGAUUGAGCAUCA
B12: 83009603_83012343_296_CDS_ENSMUSG00000034560_ENSMUST00000038388|mouse|control|control (ssRNA)
RNA: GGGAGUUCUACAGUCCGACGAUCCUUGUUUUCAGUCUUUAUGAGUUCCAAAAGGGAAGACUGCUCAUAGGGCAGAAGCUUUAAUGCUAUAGGAUCAAGAUUGAAAUCCCAAACAUCGCCAAUCAAAUCAUCUAGGGCGUCCUCCAACAGAGGAUUGAGCAUCA
B13: chr13:91842754:91842755:+_ENSMUSG00000003992_ENSMUST00000004094|mus_hu|FALSE|FALSE (ssRNA)
RNA: GGGAGUUCUACAGUCCGACGAUCAUAUGUUCAAUGCAGCAAGAAUUGCUGAUAUUAUUACUGUGAGAUGACGUGUAAAAAUAACACUAGGAACAGGUAGUAUACAUCAAGACCAACACGAAUGCAUUGAUAAAGAUGGAAAACCAACAGAGGAUUGAGCAUCA
B14: chr3:72423869:72423870:-_ENSG00000163602_ENST00000477973|hu_mus|motif|central (ssRNA)
RNA: GGGAGUUCUACAGUCCGACGAUCGCAGAAUUCAUAAAUAGACAUUUCUAUUUAAAGCAGGAAAAUGAUAAAGUGGCUUCGGAUAACAGUCGUGCACAUGCCAAUAACAGGAAUAUAUUAACAUCUUUUAUUUGCUAGACAAAGCAACAGAGGAUUGAGCAUCA
B15: chr13:49821539:49821540:+_ENSMUSG00000037851_ENSMUST00000165316|mus_mus|motif|central (ssRNA)
RNA: GGGAGUUCUACAGUCCGACGAUCUUCCCGAGCCAUGCCCUCAUCCACCAUUGACUGGUCAGGUGUGACAUCUAAGAGAACGGGAGCCUGAGCAUCAGAGUGUGCUUCAAACUGCGCGGUCCCUCCCGUGGCCUGGUCAAAGGUCAACAGAGGAUUGAGCAUCA
B16: chrX:129263551:129263552:-_ENSG00000156709_ENST00000287295|hu_hu|FALSE|FALSE (ssRNA)
RNA: GGGAGUUCUACAGUCCGACGAUCGGGCUGCAGUGGGUUUGCCAAUUCCACUGUGGGGCUUCAGUCUUCAUGAAUGUUGAAUAGUUUGGCUACUUCAUUGAGAUCUUCAUGCUGCUCACCGUCCUUAAUGAUCUUCCUUGCUAUCAACAGAGGAUUGAGCAUCA
B17: chr17:62499630:62499631:-_ENSG00000108654_ENST00000581693|hu_hu|motif|central (ssRNA)
RNA: GGGAGUUCUACAGUCCGACGAUCGAGCACCACCGUAGAUACAAGUAGACUUCAAGCGACAUGCUCUACAAUAUUCAGCAGCGGCUUGCUGCACCUGUUGGGCCAGUUCCCGAGUUGGUGCCAGCACCAAACAAAUAGGCCCAUCAACAGAGGAUUGAGCAUCA
B18: 156853296_156855257_3438_CDS_ENSMUSG00000055485_ENSMUST00000069098|mouse|control|control (ssRNA)
RNA: GGGAGUUCUACAGUCCGACGAUCCUCCCGCUCUCUCUGCAGUGCAGCCUUCCAGUCAGGCCCGGGCCUCUCACUGGCACCCUUCCCAGCCUUCAGCUCCAUCUGCGAGGCGUGGCCCUUGAGCUCUGCACGCUCUGUCUCCCACAACAGAGGAUUGAGCAUCA
B19: 64413482_64415959_3374_CDS_ENSG00000118482_ENST00000393387|human|control|control (ssRNA)
RNA: GGGAGUUCUACAGUCCGACGAUCUUUUUUUGGAGAAAGAUCAUCUACAGGUGGUGCCAUUCGACCUAUGCAGAUUUUGCAGUUGAGAUCAAAAAGAUGCUGUCUGUGUUGACUAGUGGUAUCUUUAGACAUAGAGUCAACCUCCAACAGAGGAUUGAGCAUCA
B20: 34423294_34423414_806_3pUTR_ENSMUSG00000016308_ENSMUST00000016452|mouse|control|control (ssRNA)
RNA: GGGAGUUCUACAGUCCGACGAUCGAUAACUGCUUUGAGGCUGGAGAUGAGAUACAACAAAGGGACAUAUGCAAUUGUAAUGUUUGCAAGUAACCCAGGUACAGUACAUUGGAUUUCAAAUAAUGUCUCUGAUGCUCCACAGGACAACAGAGGAUUGAGCAUCA
B21: chrX:20248820:20248821:+_ENSMUSG00000001924_ENSMUST00000001989|mus_mus|mus_mus_mus_hu_True|8_58 (ssRNA)
RNA: GGGAGUUCUACAGUCCGACGAUCGGCGAAGUCCGUCACCACAAAGUCAGGUUCUGCCAGUGAGGCCACCAAGGAUUUAAAACUAAUCUUCUUAGGUACUUUGACCUGACUGACGAUGCCUCCACGGAUGUAGUCAGAGAAGUUCAACAGAGGAUUGAGCAUCA
B22: chr2:155494191:155494192:-_ENSMUSG00000038324_ENSMUST00000041059|mus_mus|motif|central (ssRNA)
RNA: GGGAGUUCUACAGUCCGACGAUCCUCGUCACUUAUUUUUAGUUUCUGUCCCCGGAUAGAGAUGGUAGGCCUCAUAAGAAUUUCGGCAAGAAGAUCAACACCUCCAAAUAAGUCAAAAAUAUAUGUAUUUGGGUAUGUAGCUUCCAACAGAGGAUUGAGCAUCA

This is one part of the list.

Our source for the binding signal values is paper PMC12136788.

The assay has as its target T1, UNK ZnF1-3. Description: nsRBNS (natural sequence RNA bind-n-seq); RBNS binding buffer (assumed for nsRBNS): 25 mM Tris pH 7.5, 150 mM KCl, 3 mM MgCl2, 0.01% Triton X-100, 500 ug/ml BSA, 20 U/ml SUPERase-In, 4 C; UNK is unkempt and MSI1 is Musashi-1; names of the RNAs are library labels; protein concentration not given here; high values mean tight binding.
B1: the binding signal was found to be 0.18 enrichment R. Under B2 stands 1.45 enrichment R; under B3, 0.794 enrichment R. The result for B4 reads 1.19 enrichment R; that for B5, 0.663 enrichment R; that for B6, 0.968 enrichment R. Under B7 stands 0.975 enrichment R. B8: the binding signal worked out at 1.24 enrichment R. Consider B9, for which the binding signal was found to be 0.732 enrichment R.

With B10, the binding signal stood at 0.691 enrichment R. As to B11, the binding signal was found to be 0.931 enrichment R. As for B12, the binding signal was 1.01 enrichment R. The result for B13 reads 0.868 enrichment R. The result for B14 reads 1.4 enrichment R; that for B15, 0.852 enrichment R.

On to B16, for which the binding signal is 0.594 enrichment R. Under B17 stands 1.25 enrichment R; under B18, 0.653 enrichment R. The result for B19 reads 0.84 enrichment R. Under B20 stands 1.82 enrichment R; under B21, 1.07 enrichment R.

In turn, B22 had a binding signal of 1.45 enrichment R.
